Sequences with one replicate were seen in a single cluster, so their values are uncertain.
Each sequence was assayed on ATP (assay: switch fluorescence ratio, 500 uM ATP over buffer (Cy3 cluster intensity, sum of 5 cycles each) (fold (ratio)); higher = stronger signal-on switching upon ATP binding; sequences stand for … in TCGTCGGCAGCGTCAGATGTGTATAAGAGACAGTTTTTTTTTTTTTTTTTTTTTTTTT…TC). Details: aptamer strand: ATP DNA aptamer (quencher-CACCTGGGGGAGTATTGCGGAGGAAGG + anchor), 100 nM annealed; ATP concentration: 500 uM; one replicate.
Method in brief: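 Values give the fluorescence ratio for each switch-domain sequence, averaged from per-cluster ratios of summed target-cycle to summed buffer-cycle Cy3 intensity. The Cy3-labelled switching-strand clusters sat on a modified Illumina MiSeq flow-cell, were annealed to 100 nM quencher-labelled ATP aptamer, and were imaged in selection buffer, then after 15 min with 500 uM ATP at 22 °C. Five cycles ran with NaOH stripping and re-annealing between them, and clusters outside 100-1000 RFU were excluded.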
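Note: ATP exposure 15 min at 22 °C before imaging.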

Row | Sequence | switch fluorescence ratio
1 | TCCGGGACGT | 1.07
2 | TCCGGGACTG | 1.05
3 | TCCGGGCCAA | 3
4 | TCCGGGCCGA | 0.998
5 | TCCGGTCACT | 1.07
6 | TCCGGTCCAG | 1.09
7 | TCCGGTGCTG | 1.13
8 | TCCGGTGTAG | 1.04
9 | TCCGGTTATG | 1.07
10 | TCCGGTTCT | 1.02
11 | TCCGTAATCT | 4.45
12 | TCCGTATCTA | 1.03
13 | TCCGTCCGAG | 1.88
14 | TCCGTCTTTC | 1.03
15 | TCCGTTAAA | 1.17
16 | TCCGTTCTGA | 1.01
17 | TCCGTTGCTT | 1.32
18 | TCCTAAAACT | 1.04
19 | TCCTAAGAA | 1
20 | TCCTAATTGT | 1.03
21 | TCCTACTATC | 1.16
22 | TCCTAGAAAG | 1.01
23 | TCCTAGTCGC | 1.12
24 | TCCTCAGGGA | 2.08
25 | TCCTCATACC | 1.64
26 | TCCTCCGGGG | 1.2

Row | Sequence | switch fluorescence ratio
27 | TCCTCGATTG | 1.08
28 | TCCTCGCCCT | 2
29 | TCCTCGGGCC | 1.37
30 | TCCTCGTTGG | 1.02
31 | TCCTCTAATG | 1.51
32 | TCCTCTGGTG | 3.31
33 | TCCTCTTCAG | 1
34 | TCCTGAGAAA | 1.06
35 | TCCTGAGAGG | 1.04
36 | TCCTGATGTC | 1.03
37 | TCCTGATTCA | 1.04
38 | TCCTGCGGAC | 2.95
39 | TCCTGCGGCG | 1.02
40 | TCCTGCGGGT | 1.02
41 | TCCTGGCGGA | 1.03
42 | TCCTGTATCA | 1.05
43 | TCCTTAAAAC | 1.12
44 | TCCTTAAAGT | 1.01
45 | TCCTTACATC | 1
46 | TCCTTAGCAG | 2.64
47 | TCCTTAGTCC | 1.05
48 | TCCTTCCG | 2.39
49 | TCCTTGATGG | 1.02
50 | TCCTTTTAA | 0.981
51 | TCGAAAAAAT | 1.25
52 | TCGAAACGAA | 0.989

Row | Sequence | switch fluorescence ratio
53 | TCGAAACGT | 1.1
54 | TCGAAAGTGA | 1.03
55 | TCGAACCTC | 1.04
56 | TCGAACTTTT | 1.02
57 | TCGAAGATA | 1.01
58 | TCGAAGCTGT | 1.01
59 | TCGAAGTCTT | 1.05
60 | TCGAAGTTTC | 1.11
61 | TCGAATGTC | 1.02
62 | TCGACAGCGT | 1.04
63 | TCGACAGGTG | 2.1
64 | TCGACCCGGA | 0.989
65 | TCGACGAGCT | 1.07
66 | TCGACGAGG | 1.02
67 | TCGACTCGGA | 1
68 | TCGACTTAAT | 1
69 | TCGAGAGATT | 0.973
70 | TCGAGATAAC | 1.02
71 | TCGAGCATTT | 1.26
72 | TCGAGCGTAG | 1.04
73 | TCGAGCTGAC | 1.94
74 | TCGAGGCATG | 1.33
75 | TCGATACTTA | 1.01
76 | TCGATCAGCG | 1.01
77 | TCGATCCTTG | 1.03
78 | TCGATCGTT | 0.952

Row | Sequence | switch fluorescence ratio
79 | TCGATCTATG | 1.03
80 | TCGATCTTTA | 1.03
81 | TCGATGATTA | 1.01
82 | TCGATGGTTA | 1.05
83 | TCGATGTAAT | 1.28
84 | TCGATGTTTT | 1.05
85 | TCGATTTAGG | 0.984
86 | TCGCATATGT | 1.46
87 | TCGCATTCGA | 1.51
88 | TCGCATTCGG | 1.2
89 | TCGCCAGGGG | 1.05
90 | TCGCCGATTA | 0.976
91 | TCGCCGGTTC | 1.02
92 | TCGCCGTAG | 1.02
93 | TCGCCGTTCC | 1.03
94 | TCGCCTAAGT | 1.01
95 | TCGCGACACT | 2.07
96 | TCGCGCTTCC | 2.07
97 | TCGCGGCCGT | 1.03
98 | TCGCGTTAGG | 1.01
99 | TCGCGTTCG | 1.03
100 | TCGCTAGACC | 1.36
101 | TCGCTCATCC | 1.15
102 | TCGCTGCGTG | 1.01
103 | TCGGAAAAA | 1
104 | TCGGAAAGCG | 1.07

Row | Sequence | switch fluorescence ratio
105 | TCGGAAGGTC | 1.05
106 | TCGGAAGTTA | 1.02
107 | TCGGAATAGT | 1.55
108 | TCGGACAATT | 1.08
109 | TCGGACCGCT | 1.04
110 | TCGGACCTGG | 1.08
111 | TCGGACTCTG | 0.959
112 | TCGGAGTCAC | 1.45
113 | TCGGAGTTT | 0.978
114 | TCGGATAAGC | 1.03
115 | TCGGATACCG | 0.926
116 | TCGGCCAAGA | 1.06
117 | TCGGCCGAAG | 0.983
118 | TCGGCCGAGC | 1.01
119 | TCGGCGCCTA | 0.978
120 | TCGGCGCGAG | 0.996
121 | TCGGCGGGTA | 1
122 | TCGGCTGAAT | 1.02
123 | TCGGCTGGTA | 0.968
124 | TCGGGACGCA | 1.05
125 | TCGGGAGTAA | 1.44
126 | TCGGGGAGGG | 0.963
127 | TCGGTAGAAA | 1.09
128 | TCGGTCACA | 1
129 | TCGGTCGCTA | 1.05
130 | TCGGTCGCTG | 1

Row | Sequence | switch fluorescence ratio
131 | TCGGTGACCC | 0.974
132 | TCGGTGAGGA | 1.03
133 | TCGGTGCAAC | 1.1
134 | TCGGTGGAGG | 0.982
135 | TCGGTTAGTT | 0.94
136 | TCGGTTGCCG | 0.99
137 | TCGTACAATT | 1.03
138 | TCGTAGAACT | 0.977
139 | TCGTAGGT | 1.23
140 | TCGTATAATG | 0.927
141 | TCGTCATCA | 1
142 | TCGTCCAT | 0.991
143 | TCGTCCTTGT | 0.993
144 | TCGTCGCTG | 1.02
145 | TCGTCTACAT | 1.03
146 | TCGTCTTAAC | 1.06
147 | TCGTCTTCTA | 0.992
148 | TCGTGACACG | 1.01
149 | TCGTGAGTAA | 1.08
150 | TCGTGATGCG | 1
151 | TCGTGCATAA | 1.15
152 | TCGTGCGGTG | 1.09
153 | TCGTGGAGAG | 0.98
154 | TCGTGGATCC | 0.966
155 | TCGTGTCGTT | 0.958
156 | TCGTTAAGTC | 1.03

Row | Sequence | switch fluorescence ratio
157 | TCGTTAGAAA | 1.01
158 | TCGTTATGAA | 0.994
159 | TCGTTATGGC | 1.04
160 | TCGTTCCC | 1.04
161 | TCGTTCGCC | 1.14
162 | TCGTTCGGCG | 0.999
163 | TCGTTGAAGT | 0.999
164 | TCGTTGACTA | 1.01
165 | TCGTTGCGGT | 0.999
166 | TCGTTGCTTG | 1.05
167 | TCGTTGGCA | 1.03
168 | TCGTTGGCCA | 0.999
169 | TCGTTGGTT | 0.987
170 | TCGTTTATAA | 0.986
171 | TCTAAAAATT | 1.16
172 | TCTAAAAGTC | 0.996
173 | TCTAACGCA | 1.95
174 | TCTAACTCAG | 1.02
175 | TCTAAGACGG | 0.983
176 | TCTAAGCAAT | 2.84
177 | TCTAAGGATG | 0.985
178 | TCTAATGACT | 0.993
179 | TCTAATGGTG | 1
180 | TCTACAATAT | 1.09
181 | TCTACAGTAA | 1.2
182 | TCTACCAGAT | 1.02

Row | Sequence | switch fluorescence ratio
183 | TCTACCCGA | 1.04
184 | TCTACGACTC | 1.19
185 | TCTAGAAAGA | 0.978
186 | TCTAGAAGGT | 1.01
187 | TCTAGCGAAG | 0.985
188 | TCTAGCTAGG | 1.04
189 | TCTAGGAAGC | 1.06
190 | TCTAGGTCCC | 1.02
191 | TCTAGTTATT | 1.05
192 | TCTATCCCAT | 0.99
193 | TCTATCGCCA | 1.11
194 | TCTATCGCTT | 1.12
195 | TCTATGTCCA | 1.04
196 | TCTATGTTTT | 0.981
197 | TCTATTCAAA | 0.971
198 | TCTATTGCCT | 1.05
199 | TCTATTTAAC | 1.04
200 | TCTATTTGAA | 0.997
201 | TCTCAAAAGC | 1.27
